Screen size: about 48,000 compounds; about 120 (0.25%) were called active. Another 4% or so got no clear call; they are omitted. The call rests on the fitted dose curve; in most records, active means well fitted activation curve with a large enough effect; inconclusive means small, poorly fitted or top-dose-only effect, or another doubt; inactive means no such curve, though single readings can be large or run the other way. The list shows a part of the results.
Test: Primary qHTS for Identification of Small Molecule Activators of Huntingtin-Antisense Promoter Activity; further: nearly all actives have a fitted effect of over 55% in size
Settings: HEK293 HTT-AS promoter firefly luciferase reporter (activity 0% = vehicle and -100% = no light), 24 h; series mostly up to 57.5 µM; activity change, positive = activation: at the top concentration
How it was run: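 HEK293 cells carrying firefly luciferase reporters were seeded at 2,500 per well in Opti-MEM and cultured for 24 h. They were then treated with compounds at up to 57.5 uM final for 24 h at 37 degrees C before Dual-Glo luminescence readout.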

| SMILES | activity change, positive = activation |
| --- | --- |
| CN1CCOC(c2ccccc2)c2ccccc2C1 (stereo not drawn) | inactive: -5.39% |
| CCCOc1ccc(CNC(=O)c2oc3ccc4c(c3c2C)C(=O)CC(C)(CC)O4)cc1 (stereo not drawn) | inactive: -25.5% |
| CC(NC(=O)C1CCN(S(=O)(=O)c2ccc(F)cc2)CC1)c1ccccc1 (stereo not drawn) | inactive: -26.5% |
| CN1CCC(=C2c3ccccc3CCc3sccc32)CC1 | inactive |
| COc1cccc(C(=O)Nc2nc3ccc(S(=O)(=O)N4CCCC4)cc3s2)c1 | inactive: -20.7% |
| O=C(Nc1ccc(Br)cc1)c1cc(-c2cccs2)nc2ccccc12 | inactive: -4.18% |
| Cc1ccc(NS(=O)(=O)c2ccc(-c3cnc(C4CC4)o3)cc2)cc1N(C)C | inactive: -39.3% |
| CC(C)Oc1ccc(C(=O)N2CCC(c3nc4ccccc4o3)CC2)cc1 | inactive: -19.1% |
| CC(C)c1ccc(NC(=O)CSC2=Nc3ccccc3C3=NC(CC(=O)NCc4cccs4)C(=O)N23)cc1 (stereo not drawn) | inactive: 6.16% |
| CC(=O)Nc1ccc(NC(=O)CSc2nccn2Cc2ccc3c(c2)OCO3)cc1 | inactive: -11.6% |
| COc1cc(NC(=O)CSc2ncc3c(n2)-c2ccc(Cl)cc2N(Cc2ccccc2)S3(=O)=O)cc(OC)c1 | inactive: 1.9% |
| O=C1CSC2(C(=O)N(Cc3ccccc3F)c3ccccc32)N1c1cccc(C(F)(F)F)c1 (stereo not drawn) | inactive: -41.8% |
| O=C(Cn1ncc2c3ccccc3n(Cc3ccc(Cl)cc3)c2c1=O)NCCC1=CCCCC1 | inactive: -7.73% |
| CN(C)CCNC(=O)C1CCN(c2ncnc3c2nc2n3CCCCC2)CC1 | inactive: -8.59% |
| CCCn1c2ccccc2c2cnn(CC(=O)NCCCN3CCCCC3)c(=O)c21 | inactive: -10.2% |
| CCOc1ccc(NC(=O)c2sc3nc4c(c(-c5ccccc5)c3c2N)C(=O)CC(C)(C)C4)cc1 | inactive: -7.34% |
| O=C(NCCc1ccccc1)c1ccc2nc(N3CCCCC3)sc2c1 | inactive: -42.8% |
| CCOc1cc(C2C(C(=O)OC)=C(C)NC3=C2C(=O)c2ccccc23)ccc1OC (stereo not drawn) | inactive: -25% |
| OCC(O)CS (stereo not drawn) | inactive: -0.166% |
| Cc1ccccc1NC(=O)c1cn(-c2ccccc2)nc1-c1ccccc1 | inactive: -16.4% |
| CCc1cc(-c2n[nH]c(C)c2-c2ccc3c(c2)OCCO3)c(O)cc1O | inactive: -44.7% |
| O=S(=O)(NCC(c1ccco1)N1CCOCC1)c1ccc(Br)cc1 (stereo not drawn) | inactive: -13.6% |
| Cc1ccccc1-c1ccnc2[nH]n(-c3ccccc3)c(=O)c12 | inactive: -10.4% |
| COc1ccc(OC)c(CN2CCN(S(=O)(=O)c3ccccc3)CC2)c1 | inactive: -1.46% |
| Cc1ccc2oc(C(=O)N(Cc3ccc(N(C)C)cc3)CC3CCCO3)c(C)c2c1 (stereo not drawn) | inactive: -24.3% |
| CCOC(=O)c1c(NC(=O)CSc2cn(CCNC(=O)c3cccc(C(F)(F)F)c3)c3ccccc23)sc2c1CCC2 | inactive: 2.02% |
| COc1ccccc1C(=O)Nc1cccc(C(=O)OCc2cc(=O)n3nc(C4CC4)sc3n2)c1 | inactive: -21.5% |
| O=C(Nc1ccc(OC(F)(F)F)cc1)C(Cc1ccccc1)NS(=O)(=O)c1cccc2nsnc12 (stereo not drawn) | inactive: -30.2% |

Source: PubChem BioAssay AID1508624 (National Center for Advancing Translational Sciences (NCATS), 2021)
